# Assay results as given in PubChem BioAssay AID624296 (National Center for Advancing Translational Sciences (NCATS), 2012).
# Screen size: about 350,000 compounds; about 9,900 (2.8%) were called active. The shares of active, inactive and inconclusive entries below differ from those in the screen. Calls follow the shape of the dose curve; as a rule, active = well fitted activation curve with a large enough effect; inconclusive = small, poorly fitted or top-dose-only effect; inactive = no such curve, though single readings can be large or run the other way. No potency is given beside an inconclusive call; the fits are too rough.
# Assay: A quantitative high throughput screen for small molecules that induce DNA re-replication in MCF 10a normal breast cells. Also: nearly all actives have a fitted effect of over 50% in size.
# Conditions: MCF 10A DNA re-replication, Hoechst nuclear intensity, 48 h; series mostly up to 46.1 µM
# Potency is read from the fitted curve at half-maximal effect; tags tell the direction and shape of the fitted curve.
row,SMILES,Potency
1,CCOC(=O)c1c(NC(=O)C2CCCCC2C(=O)O)sc2c1CCCCC2 (centres undefined),"inconclusive [activator, single point]"
2,COc1cc2c(cc1OC)C(c1ccc(Br)cc1)NCC2 (centres undefined),inactive
3,O=C(Nc1ccc(Cl)cc1)N1CCC(c2nc(-c3cccs3)no2)CC1,"inconclusive [activator, full curve, poor fit]"
4,CCOc1ccc2nc(NCCCNS(=O)(=O)c3ccccc3)c(C#N)cc2c1,active: 2.91 µM
5,CCC1CCc2c(sc3ncnc(N4CCOCC4)c23)C1 (centres undefined),"inconclusive [activator, partial curve]"
6,O=C1C=C(c2ccc3c(c2)OCCO3)C[C@@H](c2ccc(F)cc2)C1,"inconclusive [activator, partial curve, poor fit]"
7,COc1nc(Nc2ccc(-c3nc4ccccc4o3)cc2)nc(N2CCOCC2)n1,"inconclusive [activator, partial curve, poor fit]"
8,COc1ccc(OCCOC(=O)c2cc(S(=O)(=O)N3CCOCC3)c(Cl)cc2Cl)cc1,"inconclusive [activator, single point]"
9,CCCc1nn(C)c(C(=O)Nc2cccc(CC)c2)c1Cl,"inconclusive [activator, partial curve, poor fit]"
10,O=C(Nc1ccccc1[N+](=O)[O-])C1(c2ccccc2)CCOCC1,"inconclusive [activator, partial curve]"
11,CCOC(=O)N/N=C/C(Cl)=C/c1ccccc1,inactive
12,Cc1nc(-c2ccccc2)sc1-c1nc(-c2cccnc2)ncc1S(=O)(=O)c1ccccc1,"inconclusive [activator, single point]"
13,CCCOP(=O)(c1ccccc1)c1ccccc1,"inconclusive [activator, single point]"
14,CC(C)c1nnc(NC(=O)CSc2nnc(NC(=O)c3c(F)cccc3F)s2)s1,"inconclusive [activator, partial curve, poor fit]"
15,CCOc1ccc(N2C(=O)S/C(=C\c3cccn3C)C2=O)cc1,"inconclusive [activator, single point]"
16,C[C@H](CO)N1C[C@H](C)[C@@H](CN(C)C(=O)Nc2ccccc2)Oc2ccc(NC(=O)c3ccncc3)cc2C1=O,inactive
17,CC1CCCC(C)N1C(=S)NCc1ccco1 (centres undefined),"inconclusive [activator, single point]"
18,CN(C)NC(=S)NC(=O)C12CC3CC(CC(C3)C1)C2,"inconclusive [activator, full curve, poor fit]"
19,COc1ccc(-n2nc([N+](=O)[O-])c(=NCCC3=CCCCC3)n2O)cc1,"inconclusive [activator, partial curve, poor fit]"
20,Nc1nc(-c2cccs2)cs1,"inconclusive [activator, single point]"
21,Cc1ccc(SCc2[nH]nc3c2C(c2ccc(C)o2)C(C#N)=C(N)O3)cc1 (centres undefined),"inconclusive [activator, single point]"
22,COc1cc(C(O)CO)ccc1O (centres undefined),"inconclusive [activator, single point]"

row,SMILES,Potency
1,CCC1S/C(=N/N=C/c2ccco2)N(Cc2ccccc2C)C1=O (centres undefined),"inconclusive [activator, partial curve, poor fit]"
2,CC(NC(=O)C1CCN(S(=O)(=O)c2ccc3c(c2)NC(=O)CO3)CC1)c1ccccc1 (centres undefined),inactive
3,Cn1c(/C(C#N)=C(\O)c2cccc(F)c2)nc2ccccc21,inactive
4,Cc1ccc(NC(=O)C(=O)NCCOc2ccccc2Cl)cc1,"inconclusive [activator, partial curve, poor fit]"
5,FC(F)(F)c1ccccc1NC(=S)N/N=C1\CC2CC=CC12 (centres undefined),"inconclusive [activator, single point]"
6,Cc1onc(-c2ccccc2Cl)c1C(=O)N1CC(C)CC(C)C1 (centres undefined),"inconclusive [activator, partial curve, poor fit]"
7,CCOc1cccc2sc(Nc3nc4ccc(NC(C)=O)cc4s3)nc12,active: 3.66 µM
8,Fc1ccc(CN2CCN3CCCC3C2C2CCCCC2)cc1F (centres undefined),active: 20.6 µM
9,Clc1ccc(CN2CCN(c3ncccn3)CC2)cc1,inactive
10,CCOc1cc(/C=C2/C(=O)ON=C2C)ccc1OCc1ccccc1F,"inconclusive [activator, single point]"
11,CCOC(=O)CNS(=O)(=O)c1ccc(S(=O)(=O)NC2CC2)cc1,"inconclusive [activator, partial curve, poor fit]"
12,COc1ccc(C(=O)N/N=C/c2cc3ccccc3[nH]c2=S)cc1,"inconclusive [activator, partial curve, poor fit]"
13,COc1ccc(NC(=O)COC(=O)C(CC(C)C)N2C(=O)C3CC=CCC3C2=O)cc1Cl (centres undefined),"inconclusive [activator, partial curve, poor fit]"
14,Cc1ccc(C(=O)NC(=S)NCC2CCCO2)cc1 (centres undefined),inactive
15,COc1ccc(OC)c(NC(=S)N(CCc2c(C)[nH]c3ccc(C)cc23)Cc2cccs2)c1,inactive
16,Cc1cccc(NC(=O)C2CCN(S(=O)(=O)c3c(C)c(C)cc(C)c3C)CC2)n1,"inconclusive [activator, single point]"
17,CCc1ccc(NC(=O)COc2ccc(/C=C(/C#N)c3nc4ccccc4[nH]3)cc2OC)cc1,"inconclusive [activator, single point]"
18,C(=C\c1ccccn1)/c1ccncc1,inactive
19,Cc1ccc(SCC(=O)c2ccc(CC(=O)O)s2)cc1,inactive
20,COc1cccc(Nc2nc(-c3sc(C)nc3C)cs2)c1,"inconclusive [activator, single point]"
21,CC1Cc2ccccc2N1S(=O)(=O)c1cccc(C(=O)NCc2ccncc2)c1 (centres undefined),"inconclusive [activator, partial curve, poor fit]"
22,COCc1nnc(NC(=O)CCc2ccc(OC)cc2)s1,"inconclusive [activator, single point]"
